Experimental data as given in PMC4336329 (PLoS ONE, 2015).
Out of some 310,000 compounds screened, about 14,000 (4.5%) showed an effect of 50% or more. Effects have a minus sign here. Some of the results follow.

target: human ether-à-go-go-related gene (hERG) potassium channel (human, UniProt Q12809); assay: primary screen, population patch clamp on CHO cells stably expressing hERG
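Also: peak tail current of the secondary pulse compared with the same well before compound.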

Sequence of human ether-à-go-go-related gene (hERG) potassium channel (Q12809 whole entry, looked up): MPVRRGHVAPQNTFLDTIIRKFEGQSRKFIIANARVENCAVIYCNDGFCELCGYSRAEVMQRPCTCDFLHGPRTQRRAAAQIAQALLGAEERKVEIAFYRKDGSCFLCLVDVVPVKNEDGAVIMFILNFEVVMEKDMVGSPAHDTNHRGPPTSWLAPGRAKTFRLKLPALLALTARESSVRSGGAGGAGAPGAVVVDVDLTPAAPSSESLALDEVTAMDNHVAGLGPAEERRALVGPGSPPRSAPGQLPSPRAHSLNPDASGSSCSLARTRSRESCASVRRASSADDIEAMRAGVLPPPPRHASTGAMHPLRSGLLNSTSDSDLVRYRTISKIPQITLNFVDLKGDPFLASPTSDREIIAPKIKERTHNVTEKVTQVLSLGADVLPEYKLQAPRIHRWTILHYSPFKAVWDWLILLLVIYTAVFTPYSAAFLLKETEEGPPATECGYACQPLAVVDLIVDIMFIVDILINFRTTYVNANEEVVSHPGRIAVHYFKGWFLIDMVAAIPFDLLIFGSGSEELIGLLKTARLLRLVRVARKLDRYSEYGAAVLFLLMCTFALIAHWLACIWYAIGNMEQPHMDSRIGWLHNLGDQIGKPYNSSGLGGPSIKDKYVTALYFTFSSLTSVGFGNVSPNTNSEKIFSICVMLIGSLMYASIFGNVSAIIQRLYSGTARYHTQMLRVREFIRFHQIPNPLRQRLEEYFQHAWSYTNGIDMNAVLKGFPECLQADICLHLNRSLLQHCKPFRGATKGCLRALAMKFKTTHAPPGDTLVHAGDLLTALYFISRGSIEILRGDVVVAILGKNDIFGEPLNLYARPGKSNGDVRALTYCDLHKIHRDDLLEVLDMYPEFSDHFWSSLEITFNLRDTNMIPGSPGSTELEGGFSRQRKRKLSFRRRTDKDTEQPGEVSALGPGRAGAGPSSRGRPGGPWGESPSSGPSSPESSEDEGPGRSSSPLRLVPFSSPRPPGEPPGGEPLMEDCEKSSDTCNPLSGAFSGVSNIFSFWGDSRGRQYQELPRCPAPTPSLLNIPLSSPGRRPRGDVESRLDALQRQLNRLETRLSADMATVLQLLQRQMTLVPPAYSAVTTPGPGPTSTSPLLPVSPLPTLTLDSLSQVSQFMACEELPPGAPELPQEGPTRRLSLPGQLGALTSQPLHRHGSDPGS

SMILES	hERG current change (%, negative = inhibition) at 10uM [%]
CSc1sc(C(=O)NCC2CC2)cc1S(=O)(=O)C(C)C	2.39
CN(CC(=O)NCc1ccco1)CC(=O)Nc1c(Cl)cccc1Cl	-12.7
CCCN1CCN(C(=S)Nc2ccccc2C(F)(F)F)CC1	0.283
O=C(c1ccccc1F)N1CCN(c2cnn(-c3cccc(Cl)c3)c(=O)c2Cl)CC1	-32.5
COc1ccccc1NC(=O)Cn1c2ccccc2c2nc3n(c(=O)c21)CCS3	5.31
CC(C)c1nnc(SCC(=O)N2CCOCC2)n1C	12
Cc1noc(C)c1COc1ccc(C(=O)N2CCN(S(=O)(=O)c3ccccc3)CC2)cc1	-43
O=C(N/N=C\c1cccc(Br)c1)c1ccccc1-n1cccc1	8.68
Cc1oc(C(=O)O)cc1CSCc1cc(C(=O)O)c(C)o1	16
CCS(=O)(=O)c1ccc(C(=O)Nc2ccccc2OC)c(Cl)c1Cl	8.71
CS(=O)CSc1nc2c(cc1C#N)CCCC2 (stereo not shown)	-25
Cn1c(Cn2c(=O)sc3ccccc32)nnc1SCC(=O)Nc1cccc(F)c1	13.8
Cc1ccc(NC(=O)CSc2nncc3ccccc23)cc1	-11
COc1cc(NC(=O)C2CCCCC2)c(OC)cc1NC(=O)c1ccccc1	16.6
CC(C)c1nc(CN2CCCCC2)cc(=O)[nH]1	15.7
Cc1ccc(NC(=O)c2cccc(S(=O)(=O)N3CCN(c4ccc(F)cc4)CC3)c2)nc1	-14.6
NNc1nc(-c2ccccc2)nc(-c2ccccc2)c1Br	5.71
CC(=O)CCCCn1cnc2c1c(=O)n(C)c(=O)n2C	20.7
O=C(Cc1c(F)cccc1Cl)N1CCOCC1	6.36
Cc1cccc(N2C(=O)NC(=O)/C(=C/c3cc4c(cc3[N+](=O)[O-])OCO4)C2=O)c1	7.04
CC(C)(CCO)NC(=S)NC1CC2C=CC1C2 (stereo not shown)	0.0745
Nc1ccc(C(=O)c2ccc3c(c2)OCCO3)cc1N	2.85
O=C(CNc1cccc2ccccc12)N/N=C/C(Br)=C/c1ccccc1	4.86

SMILES	hERG current change (%, negative = inhibition) at 10uM [%]
O=C(CC1C(=O)NCCN1C(=O)Nc1ccc(F)cc1)Nc1ccc(F)cc1 (stereo not shown)	13.9
Cc1ccc(Cn2ccc(=O)c(OCc3c(Cl)cccc3Cl)c2C)cc1	10.1
CCOC(=O)N/N=C\c1ccccc1OC/C=C/c1ccccc1	16.9
Cc1ccccc1-c1nnc(SCC(=O)Nc2c(C)n(C)n(-c3ccccc3)c2=O)o1	-16.2
CCCn1c(=O)c2c(C(F)(F)F)cc(-c3ccco3)nc2n(CCC)c1=O	7
CC(CN1CCOCC1)OC(=O)c1cccc(Cl)c1.Cl (stereo not shown)	10.4
O=C(Nc1nnc(-c2ccccc2F)s1)Nc1ccccc1F	23.3
CC1CCCC(C)N1/N=C/c1ccccc1OC(F)F (stereo not shown)	11.4
COc1ccc(OCC(=O)N2CCN(C(=O)c3cccs3)CC2)cc1	-43.3
COCCCN(C(=O)c1cc(C)oc1C)c1c(N)n(CC(C)C)c(=O)[nH]c1=O	7.78
O=C(NC1CCN(Cc2ccccc2Cl)CC1)c1ccccc1	-65.2
CCN1CCN(C(=O)CCc2nnc(CCc3ccc(OC)cc3)o2)[C@@H](C)C1=O	7.31
Cn1c(=O)[nH]c(=O)c2c1nc(NCCN)n2CCOc1ccccc1	26.9
COc1c(O)ccc(/C=N\NC(=O)c2ccc3c(c2)OCO3)c1[N+](=O)[O-]	12.7
CSCc1ccc(C(=O)N2CCCC(Nc3ccc4c(c3)OCCO4)C2)o1 (stereo not shown)	-8.6
O=C(C[n+]1cc[nH]c1)c1ccc(Cl)cc1.[Cl-]	4.63
CN(C)c1ccccc1C(=O)c1ccccc1N(C)C	-12.9
COc1ccc(C(=O)NCCCOc2cccc(NC(C)=O)c2)cc1	-11.5
CNC(=S)N1N=C2c3ccccc3CCC2C1c1ccccc1Cl (stereo not shown)	8.41
CCc1ccc2oc(C(=O)NCCc3ccc(S(N)(=O)=O)cc3)cc(=O)c2c1	12
Cc1cc(NC(=O)Cn2c(=O)oc3ccccc32)no1	2.61
O=C(NC1CCN(Cc2ccccc2)C1)c1cc(COc2ccc(F)cc2F)on1 (stereo not shown)	-64.2
CN(C)c1ccc(NC(N)=S)cc1	9.61
